Experimental data reported in PubChem BioAssay (NCI).
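These data come from cells grown in 96-well plates and exposed to compound for 48 hours at five concentrations. Here, GI50 denotes the concentration required for 50% inhibition of growth. At the TGI there is no net growth.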

Test system: NCI-H322M lung
Assay: NCI anticancer screen, dose series, 48 h

Compound: Cn1cc(-c2nc(N)nnc2-c2c[nH]c3ccccc23)c2cc(Br)ccc21
- GI50: 3.95 µM
- TGI: 19.8 µM
